Laboratory results taken from article PMC10320511.
No constants are given. Whether binding was seen depends on the method and setting. In cells and extracts the contact can be indirect. Some results given as binding are weak or reduced against the parent protein; the word gives no strength. Sequences can lack the tags named with a protein.

The chains behind the UniProt entries cited, without tags or fusion partners.
UniProt Q01371: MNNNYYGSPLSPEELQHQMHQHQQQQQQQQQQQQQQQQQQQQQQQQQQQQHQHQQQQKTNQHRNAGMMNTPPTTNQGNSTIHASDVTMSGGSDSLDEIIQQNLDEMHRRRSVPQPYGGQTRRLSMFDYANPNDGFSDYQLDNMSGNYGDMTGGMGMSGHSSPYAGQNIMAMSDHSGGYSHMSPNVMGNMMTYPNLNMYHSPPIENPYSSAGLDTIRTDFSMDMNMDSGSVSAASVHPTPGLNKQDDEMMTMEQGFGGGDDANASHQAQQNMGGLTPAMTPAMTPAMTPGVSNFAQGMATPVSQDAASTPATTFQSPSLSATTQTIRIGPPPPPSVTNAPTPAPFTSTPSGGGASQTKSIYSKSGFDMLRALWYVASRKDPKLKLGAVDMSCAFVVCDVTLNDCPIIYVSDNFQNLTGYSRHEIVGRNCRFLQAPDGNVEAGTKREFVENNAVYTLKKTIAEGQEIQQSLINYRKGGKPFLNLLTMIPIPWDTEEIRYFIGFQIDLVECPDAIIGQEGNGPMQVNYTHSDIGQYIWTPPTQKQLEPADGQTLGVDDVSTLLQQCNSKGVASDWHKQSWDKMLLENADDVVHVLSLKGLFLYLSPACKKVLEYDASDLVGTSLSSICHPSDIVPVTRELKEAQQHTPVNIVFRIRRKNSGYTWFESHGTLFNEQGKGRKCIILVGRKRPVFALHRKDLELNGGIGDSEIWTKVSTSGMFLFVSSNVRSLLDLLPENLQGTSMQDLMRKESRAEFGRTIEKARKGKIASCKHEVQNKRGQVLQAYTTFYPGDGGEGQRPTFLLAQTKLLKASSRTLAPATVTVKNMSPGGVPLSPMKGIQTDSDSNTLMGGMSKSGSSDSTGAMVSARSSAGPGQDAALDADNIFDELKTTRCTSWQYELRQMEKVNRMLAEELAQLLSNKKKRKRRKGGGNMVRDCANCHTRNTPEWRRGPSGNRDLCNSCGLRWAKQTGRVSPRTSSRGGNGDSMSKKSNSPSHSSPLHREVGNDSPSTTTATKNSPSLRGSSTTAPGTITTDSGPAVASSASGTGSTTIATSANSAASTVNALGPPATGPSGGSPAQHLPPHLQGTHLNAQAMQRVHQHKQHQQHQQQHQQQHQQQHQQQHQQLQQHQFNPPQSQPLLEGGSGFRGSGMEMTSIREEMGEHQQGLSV

What was measured:
[1] = target: T1, FRQ D874A, D875A, E876A, E877A, E879A, E880A, E882A, E883A, D884A, V5H6-tagged (Neurospora crassa) (UniProt P19970); test: co-IP; V5H6-tagged FRQ (wild type or mutant) pulled down with V5 agarose from Neurospora lysate (cultures in the light, 25 °C); 50 mM Hepes pH 7.4, 137 mM NaCl, 10% glycerol, 0.4% NP-40; 4 °C, 2 h; Western blot with FRQ, FRH, WC-1 and WC-2 antibodies
T1 sequence: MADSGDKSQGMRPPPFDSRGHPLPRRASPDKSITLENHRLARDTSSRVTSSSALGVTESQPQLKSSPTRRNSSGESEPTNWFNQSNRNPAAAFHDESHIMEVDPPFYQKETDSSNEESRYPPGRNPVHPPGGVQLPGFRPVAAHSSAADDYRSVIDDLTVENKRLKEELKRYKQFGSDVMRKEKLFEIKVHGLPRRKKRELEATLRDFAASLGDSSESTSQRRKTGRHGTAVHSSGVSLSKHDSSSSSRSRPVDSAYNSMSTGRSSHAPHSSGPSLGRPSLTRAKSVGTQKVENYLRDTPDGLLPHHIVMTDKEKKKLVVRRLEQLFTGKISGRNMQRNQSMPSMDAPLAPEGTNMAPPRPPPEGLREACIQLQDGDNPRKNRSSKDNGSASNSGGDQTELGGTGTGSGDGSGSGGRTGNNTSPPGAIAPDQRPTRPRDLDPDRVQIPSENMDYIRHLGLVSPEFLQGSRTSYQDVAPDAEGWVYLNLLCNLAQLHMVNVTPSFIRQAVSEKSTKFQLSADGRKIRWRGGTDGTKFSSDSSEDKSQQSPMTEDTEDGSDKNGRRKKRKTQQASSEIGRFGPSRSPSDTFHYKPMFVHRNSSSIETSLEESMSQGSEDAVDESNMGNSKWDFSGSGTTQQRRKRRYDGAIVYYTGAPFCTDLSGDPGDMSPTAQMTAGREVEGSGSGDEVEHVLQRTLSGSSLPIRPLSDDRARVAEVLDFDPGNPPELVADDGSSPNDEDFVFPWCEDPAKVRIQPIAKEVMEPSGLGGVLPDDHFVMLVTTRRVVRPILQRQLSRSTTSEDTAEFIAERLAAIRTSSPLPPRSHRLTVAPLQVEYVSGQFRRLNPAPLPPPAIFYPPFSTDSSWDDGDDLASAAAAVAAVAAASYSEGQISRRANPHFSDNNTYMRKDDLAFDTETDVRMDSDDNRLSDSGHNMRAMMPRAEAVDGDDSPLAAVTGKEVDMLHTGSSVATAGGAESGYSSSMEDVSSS

[2] = target: T2, FRQ Δ733–774, V5H6-tagged (Neurospora crassa) (UniProt P19970); test: as above
T2 sequence: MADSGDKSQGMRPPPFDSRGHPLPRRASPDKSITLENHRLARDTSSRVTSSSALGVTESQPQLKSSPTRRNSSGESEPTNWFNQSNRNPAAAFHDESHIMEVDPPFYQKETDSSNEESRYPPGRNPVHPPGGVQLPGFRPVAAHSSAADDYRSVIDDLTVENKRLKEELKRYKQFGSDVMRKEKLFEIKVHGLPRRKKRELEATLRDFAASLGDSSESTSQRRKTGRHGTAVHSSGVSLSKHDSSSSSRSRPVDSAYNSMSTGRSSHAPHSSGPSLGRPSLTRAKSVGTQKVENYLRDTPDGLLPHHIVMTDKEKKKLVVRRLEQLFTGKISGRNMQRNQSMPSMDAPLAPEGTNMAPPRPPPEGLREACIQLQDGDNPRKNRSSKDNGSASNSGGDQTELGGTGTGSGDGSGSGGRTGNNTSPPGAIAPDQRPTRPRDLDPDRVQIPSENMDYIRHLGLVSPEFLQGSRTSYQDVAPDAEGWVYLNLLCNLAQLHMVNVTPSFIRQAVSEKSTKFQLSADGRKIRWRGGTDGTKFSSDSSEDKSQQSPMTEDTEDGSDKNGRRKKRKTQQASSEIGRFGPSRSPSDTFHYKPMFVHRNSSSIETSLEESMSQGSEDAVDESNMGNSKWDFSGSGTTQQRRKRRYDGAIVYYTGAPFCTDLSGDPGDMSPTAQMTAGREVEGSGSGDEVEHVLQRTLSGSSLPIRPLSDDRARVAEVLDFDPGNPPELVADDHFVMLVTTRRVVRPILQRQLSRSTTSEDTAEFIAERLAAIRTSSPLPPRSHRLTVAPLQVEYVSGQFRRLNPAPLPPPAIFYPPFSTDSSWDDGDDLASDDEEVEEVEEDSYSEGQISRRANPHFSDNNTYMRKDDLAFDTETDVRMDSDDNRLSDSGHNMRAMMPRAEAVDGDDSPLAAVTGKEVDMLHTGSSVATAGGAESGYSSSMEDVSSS

White Collar-1 (WC-1) (from UniProt Q01371 1-1167)
binding [1]: binds weakly
binding [2]: no binding
